In the supplement of paper PMC4967469:
A lower IC50 marks a more sensitive line; a fit beyond the top or the lowest dose is shown as a bound at that dose. AUC sums up the same curve from the lowest dose to the 256-fold higher top dose; the more sensitive the line, the further below 1. Any top dose called inferred was calculated from the reported fits. For part of these data: Drugs with an entry number were screened twice under separate entries, and the two screens often disagree.

Key:
Assay in all cases: Viability of human cancer cell lines after 72 h of drug (GDSC screen)
MLN4924 = compound: NS(=O)(=O)OC[C@@H]1C[C@@H](n2ccc3c(N[C@H]4CCc5ccccc54)ncnc32)C[C@@H]1O [MLN4924]; settings: top dose 1 µM; top dose inferred
Protocol: (§1)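 Human cancer cell lines in 384-well plates, medium with 10% serum, drug for 72 h over a 256-fold dose range (nine 2-fold or five 4-fold steps up to the top dose). Adherent lines were fixed and stained with the nucleic acid dye Syto60, suspension lines read with resazurin; signal relative to control wells, capped at 0 and 100%. One two-parameter sigmoid per drug and line, fitted in a mixed model over all curves with the slope shared within a line.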

BMN-673 = compound: Cn1ncnc1[C@H]1c2n[nH]c(=O)c3cc(F)cc(c23)N[C@@H]1c1ccc(F)cc1 [BMN-673]; settings: top dose 10 µM; top dose inferred
Protocol: as §1

AZD6482 = compound: Cc1cc([C@@H](C)Nc2ccccc2C(=O)O)c2nc(N3CCOCC3)cc(=O)n2c1 [AZD6482]
Protocol: as §1

[1] = top dose 5 µM, screen: GDSC drug entry 1066, top dose inferred
[2] = top dose 5.12 µM, screen: GDSC drug entry 156

Cell Line | AUC (MLN4924) | IC50 (MLN4924) [µM] | AUC (BMN-673) | IC50 (BMN-673) [µM] | AUC (AZD6482; [1]) | IC50 (AZD6482; [1]) [µM] | AUC (AZD6482; [2]) | IC50 (AZD6482; [2]) [µM]
KP-1N (pancreas, adherent) | 0.956 | > 1 | 0.844 | 7.63 | 0.986 | > 5 | 0.928 | > 5.12
FU97 (stomach, adherent) | 0.912 | > 1 | 0.915 | > 10 | 0.596 | 0.579 | 0.713 | 1.31
PANC-03-27 (pancreas, adherent) | 0.717 | 0.245 | 0.843 | 6.42 | 0.885 | 4.84 | 0.877 | 4.57
KNS-81-FD (glioma, adherent) | 0.803 | 0.72 | 0.87 | > 10 | 0.798 | 3.44 | 0.926 | > 5.12
SK-MEL-31 (melanoma, adherent) | 0.946 | > 1 | 0.977 | > 10 | 0.966 | > 5 | – | –
PA-TU-8902 (pancreas, adherent) | 0.843 | 0.89 | 0.811 | 6.42 | 0.92 | > 5 | 0.965 | > 5.12
COR-L88 (small cell lung carcinoma, adherent) | 0.945 | > 1 | 0.985 | > 10 | 0.978 | > 5 | 0.982 | > 5.12
KYSE-510 (oesophagus, adherent) | 0.769 | 0.317 | 0.743 | 2.68 | 0.954 | > 5 | 0.905 | 4.84
BxPC-3 (pancreas, adherent) | 0.789 | 0.5 | 0.939 | > 10 | 0.91 | > 5 | 0.786 | 2.49
NCI-H1092 (small cell lung carcinoma, suspension) | 0.95 | > 1 | 0.951 | > 10 | 0.984 | > 5 | 0.99 | > 5.12
M14 (melanoma, adherent) | 0.902 | > 1 | 0.819 | 6.09 | 0.926 | > 5 | 0.968 | > 5.12
LU-139 (small cell lung carcinoma, suspension) | 0.98 | > 1 | 0.98 | > 10 | 0.886 | > 5 | 0.982 | > 5.12
TE-6 (oesophagus, adherent) | 0.871 | > 1 | 0.984 | > 10 | 0.897 | > 5 | 0.929 | > 5.12
NCI-H23 (lung adenocarcinoma, adherent) | 0.753 | 0.33 | 0.663 | 1.77 | 0.973 | > 5 | 0.988 | > 5.12
HCC1187 (breast, suspension) | 0.7 | 0.221 | 0.973 | > 10 | 0.983 | > 5 | 0.983 | > 5.12
COR-L105 (lung adenocarcinoma, adherent) | 0.902 | > 1 | 0.947 | > 10 | 0.83 | 4.16 | 0.869 | > 5.12
OSC-20 (head and neck, adherent) | 0.884 | > 1 | 0.897 | > 10 | 0.855 | > 5 | 0.812 | 3.39
L-540 (Hodgkin lymphoma, suspension) | 0.87 | 0.762 | 0.458 | 0.488 | 0.99 | > 5 | 0.974 | > 5.12
NCI-H1793 (lung adenocarcinoma, adherent) | 0.972 | > 1 | 0.929 | > 10 | 0.787 | 3.21 | 0.963 | > 5.12
NCI-H526 (small cell lung carcinoma, suspension) | 0.89 | > 1 | 0.91 | > 10 | 0.967 | > 5 | 0.939 | > 5.12
SW1463 (large intestine, adherent) | 0.963 | > 1 | 0.955 | > 10 | 0.978 | > 5 | 0.953 | > 5.12

Cell Line | AUC (MLN4924) | IC50 (MLN4924) [µM] | AUC (BMN-673) | IC50 (BMN-673) [µM] | AUC (AZD6482; [1]) | IC50 (AZD6482; [1]) [µM] | AUC (AZD6482; [2]) | IC50 (AZD6482; [2]) [µM]
A4-Fuk (B-cell lymphoma, suspension) | 0.872 | > 1 | 0.914 | > 10 | 0.84 | 3.65 | 0.801 | 2.63
RH-41 (rhabdomyosarcoma, adherent) | 0.772 | 0.326 | 0.935 | > 10 | 0.973 | > 5 | 0.931 | > 5.12
OCI-M1 (acute myeloid leukaemia, suspension) | 0.785 | 0.326 | 0.676 | 1.69 | 0.992 | > 5 | 0.995 | > 5.12
LN-18 (glioma, adherent) | 0.878 | 0.688 | 0.949 | > 10 | 0.896 | 4.06 | 0.716 | 1.13
EHEB (lymphoid neoplasm, suspension) | 0.95 | > 1 | 0.847 | > 10 | 0.772 | 2.89 | 0.741 | 2.2
BHY (head and neck, adherent) | 0.934 | > 1 | 0.918 | > 10 | 0.911 | > 5 | 0.847 | 3.79
NCI-H2009 (lung adenocarcinoma, adherent) | 0.871 | > 1 | 0.869 | > 10 | 0.952 | > 5 | 0.805 | 2.75
SNU-182 (liver, adherent) | 0.815 | 0.58 | 0.892 | > 10 | 0.958 | > 5 | 0.937 | > 5.12
SU-DHL-16 (B-cell lymphoma, suspension) | 0.675 | 0.166 | 0.996 | > 10 | 0.937 | 4.48 | 0.936 | 4.56
MDA-MB-157 (breast, adherent) | 0.822 | 0.607 | 0.899 | > 10 | 0.985 | > 5 | 0.938 | > 5.12
KU812 (chronic myeloid leukaemia, suspension) | 0.881 | 0.887 | 0.864 | 7.49 | 0.976 | > 5 | 0.763 | 1.7
SNU-449 (liver, adherent) | 0.985 | > 1 | 0.949 | > 10 | 0.932 | > 5 | 0.856 | 4.77
SW1417 (large intestine, adherent) | 0.972 | > 1 | 0.973 | > 10 | 0.93 | > 5 | 0.974 | > 5.12
HA7-RCC (kidney, adherent) | 0.578 | 0.104 | 0.674 | 2.03 | 0.855 | 4.65 | 0.969 | > 5.12
NCI-H1838 (lung adenocarcinoma, adherent) | 0.938 | > 1 | 0.967 | > 10 | – | – | 0.983 | > 5.12
SW962 (urogenital system, adherent) | 0.838 | 0.93 | 0.763 | 4.44 | 0.65 | 0.907 | 0.938 | > 5.12
TE-11 (oesophagus, adherent) | 0.851 | 0.664 | 0.822 | 5.17 | 0.924 | > 5 | 0.963 | > 5.12
HuCCT1 (biliary tract, adherent) | 0.733 | 0.316 | 0.849 | 8.84 | 0.533 | 0.389 | 0.797 | 2.73
MEL-JUSO (melanoma, adherent) | 0.875 | > 1 | 0.932 | > 10 | 0.892 | > 5 | 0.857 | 4.95
DSH1 (bladder, adherent) | 0.824 | 0.562 | 0.988 | > 10 | 0.917 | > 5 | 0.939 | > 5.12
NCI-H358 (lung adenocarcinoma, adherent) | 0.949 | > 1 | 0.959 | > 10 | 0.972 | > 5 | 0.845 | 4.35

Cell Line | AUC (MLN4924) | IC50 (MLN4924) [µM] | AUC (BMN-673) | IC50 (BMN-673) [µM] | AUC (AZD6482; [1]) | IC50 (AZD6482; [1]) [µM] | AUC (AZD6482; [2]) | IC50 (AZD6482; [2]) [µM]
Caov-4 (ovary, adherent) | 0.733 | 0.401 | 0.677 | 2.47 | 0.977 | > 5 | 0.978 | > 5.12
P30-OHK (lymphoblastic leukaemia, suspension) | 0.853 | 0.589 | 0.322 | 0.219 | 0.793 | 1.87 | 0.701 | 1.05
TGBC11TKB (stomach, adherent) | 0.943 | > 1 | 0.972 | > 10 | 0.992 | > 5 | 0.992 | > 5.12
SK-UT-1 (soft tissue, adherent) | 0.562 | 0.0906 | 0.653 | 1.59 | 0.932 | > 5 | 0.805 | 2.32
EW-3 (Ewing sarcoma, adherent) | 0.817 | 0.664 | 0.125 | < 0.0391 | 0.938 | > 5 | 0.939 | > 5.12
CAL-85-1 (breast, adherent) | 0.879 | > 1 | 0.864 | > 10 | – | – | 0.744 | 2
PE/CA-PJ15 (head and neck, adherent) | 0.728 | 0.296 | 0.775 | 4.3 | 0.941 | > 5 | 0.946 | > 5.12
ME-180 (cervix, adherent) | 0.679 | 0.203 | 0.863 | 9.29 | 0.945 | > 5 | 0.959 | > 5.12
GDM-1 (acute myeloid leukaemia, suspension) | 0.921 | > 1 | 0.969 | > 10 | 0.987 | > 5 | 0.782 | 2.05
L-363 (myeloma, suspension) | 0.787 | 0.373 | 0.977 | > 10 | 0.92 | > 5 | 0.969 | > 5.12
SCC-9 (head and neck, adherent) | 0.979 | > 1 | 0.907 | > 10 | 0.619 | 0.731 | 0.51 | 0.343
IGROV-1 (ovary, adherent) | 0.946 | > 1 | 0.764 | 5.41 | 0.769 | 2.84 | – | –
KYSE-70 (oesophagus, adherent) | 0.985 | > 1 | 0.915 | > 10 | 0.983 | > 5 | 0.948 | > 5.12
JHH-7 (liver, adherent) | 0.954 | > 1 | 0.923 | > 10 | 0.921 | > 5 | 0.963 | > 5.12
EFM-19 (breast, adherent) | 0.967 | > 1 | 0.93 | > 10 | 0.926 | > 5 | 0.803 | 4.29
YAPC (pancreas, adherent) | 0.867 | > 1 | 0.92 | > 10 | 0.977 | > 5 | 0.96 | > 5.12
KP-4 (pancreas, adherent) | 0.527 | 0.0737 | 0.902 | > 10 | 0.943 | > 5 | 0.958 | > 5.12
HuO-3N1 (osteosarcoma, adherent) | 0.966 | > 1 | 0.889 | > 10 | 0.844 | > 5 | 0.792 | 3.19
KNS-62 (lung squamous cell carcinoma, adherent) | 0.765 | 0.538 | 0.947 | > 10 | 0.925 | > 5 | – | –
MCF7 (breast, adherent) | 0.722 | 0.274 | 0.736 | 3.04 | 0.803 | 2.58 | 0.984 | > 5.12
